# The supplement of paper PMC3724861
# The list shows a part of the results.
# System: T1, Caupolican (Caup) homeodomain DNA-binding domain
# T1 sequence: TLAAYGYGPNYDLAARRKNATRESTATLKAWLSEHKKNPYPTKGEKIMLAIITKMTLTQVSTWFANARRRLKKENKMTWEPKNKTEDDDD
# Experiment: PBM E-score (8-mer, recovered from the published 9-mer minima) (E-score (dimensionless, -0.5 to 0.5)); Drosophila protein; higher = stronger relative binding preference, active = 0.31 or more
# In short: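 Caup's homeodomain DNA-binding domain (residues 214-303) was made by in vitro transcription and translation and applied at 100 nM to custom-designed protein binding microarrays. Each value is an enrichment score that gives relative binding preference for a short DNA word, with higher meaning stronger. The 8-mer values were recovered from published 9-mer scores, each of which was the minimum of its two constituent 8-mer scores. A cutoff of 0.31 marks candidate sites.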
row,Sequence,PBM E-score
1,CTGCCCAC,inactive: -0.0591
2,AGACTCGG,inactive: -0.166
3,ACTCCTAC,inactive: 0.0383
4,AATATACC,inactive: 0.13
5,ACCATACC,inactive: -0.0612
6,CCCAGAGA,inactive: -0.196
7,CATGTGTC,inactive: 0.245
8,CGACCTCA,≥ 0.0301
9,CCCTACGA,inactive: -0.059
10,AAAAGTTT,inactive: 0.0301
11,AAGTGGGC,inactive: -0.0941
12,ACGAGGAG,inactive: -0.0581
13,ATCAGCAT,≥ 0.146
14,ATGAACCA,≥ 0.113
15,GTTTATGA,inactive: 0.102
16,CGTCTTAA,inactive: -0.0241
17,AGGGTACA,inactive: 0.234
18,ACAGGGTC,inactive: -0.0149
19,ATCTTGAA,≥ 0.101
20,TAAGATAA,inactive: 0.032
21,CTGTTGTC,inactive: 0.256

row,Sequence,PBM E-score
1,TTCTTCAA,inactive: 0.0202
2,AATCAGCC,inactive: -0.0445
3,CTCTGGCA,inactive: -0.152
4,CTTTTACC,inactive: -0.00247
5,CGAAGACG,inactive: -0.178
6,AACGTTGT,inactive: 0.204
7,TCCAAACA,inactive: 0.152
8,GACAAGAC,active: 0.325
9,CGCTTTTC,inactive: -0.112
10,CAGTGAGA,inactive: -0.0392
11,ATACCTGG,inactive: -0.0292
12,CGATGTGA,≥ 0.2
13,GTCACGAA,inactive: 0.0637
14,CGGACAAA,inactive: 0.12
15,CACATACC,inactive: 0.153
16,GAACTTAC,inactive: 0.0521
17,AGCTTCTC,inactive: -0.0895
18,CGGTCTTA,inactive: -0.00157
19,AATGTTAC,inactive: 0.277
20,AGTCGGTC,inactive: -0.0794
21,CGGAACAA,inactive: 0.235

row,Sequence,PBM E-score
1,AAAACGGC,inactive: -0.0103
2,AGCAAAAT,inactive: 0.0845
3,CGTGGGCC,inactive: -0.298
4,CTGGACGA,inactive: -0.0359
5,ATTATTAC,inactive: 0.238
6,CATGAATG,inactive: 0.141
7,CCTAGGGC,inactive: -0.287
8,ATGTGCAG,inactive: 0.0547
9,CGAATACA,inactive: 0.218
10,CCTTCTAA,inactive: -0.0263
11,ATATCATG,inactive: 0.151
12,AGTTTTCC,inactive: -0.0223
13,AGCTTAAC,inactive: 0.00322
14,GCAGTAAA,inactive: 0.0253
15,ATGCAGAA,inactive: 0.0732
16,AAAACACG,inactive: 0.303
17,ATATGTAG,inactive: 0.297
18,CCAGCGGG,inactive: -0.276
19,GCTGGCTA,inactive: -0.178
20,GTAACCAC,inactive: 0.0618
